Results: PMC7073924, “2-Aminomethylene-5-sulfonylthiazole Inhibitors of Lysyl Oxidase (LOX) and LOXL2 Show Significant Efficacy in Delaying Tumor Growth” (Journal of Medicinal Chemistry, 2019)
Structures can show the parent of a compound that is named as a salt. Where two headings read alike, the source gives them in different places. Marks after values point to notes of the source that are not given here.

How the values were obtained:
[1] = MLM stability assay; conditions: mouse liver microsomes; percentage of compound remaining after 30 min; 10 μM
[2] = In vivo PK, mouse
[3] = rat liver microsomes; percentage of compound remaining after 30 min; 10 μM
[4] = system: MMTV-PyMT driven mouse breast cancer model; conditions: 70 mg/kg q.d. oral
[5] = mouse plasma, single po dose 50 mg/kg
[6] = read-out: Cmax(PO), mouse plasma, single po dose 50 mg/kg
[7] = female, mouse, in vivo, po, 50 mg/kg

SMILES | MLM stability (%) [1] | AUC(PO) [2, 5] [µM·h] | Cmax [2, 6] [µM] | AUC [2, 7] [µM·h] | Cmax [2, 7] [µM] | t1/2(PO) ([2]; mouse, single po dose 50 mg/kg) [min] | RLM stability (%) [3] | deaths due to tumor volume reaching ethical size limits (Kaplan–Meier survival) [4] | bioavailability [2, 7] [%]
CS(=O)(=O)c1cc(-c2ccccc2)cc(S(=O)(=O)c2ccc(CN)s2)c1 [Compound 3a] | (i) 64% | – | – | – | – | – | – | – | –
NCc1ncc(S(=O)(=O)c2ccc3ccccc3c2)s1 [Compound 6] | – | 4.20 | 6.35 | – | – | – | – | – | –
CS(=O)(=O)c1cc(-c2ccccc2)cc(S(=O)(=O)c2cnc(CN)s2)c1 [Compound 7a, (5-((5-(Methylsulfonyl)-[1,1′-biphenyl]-3-yl)sulfonyl)thiazol-2-yl)methanamine Hydrochloride] | – | 21.61 | 32 | > 18 | ≤ 32 | 53.4 | – | – | –
CCc1cc(-c2ccccc2)cc(S(=O)(=O)c2cnc(CN)s2)c1 [Compound 7e, (5-((5-Ethyl-[1,1′-biphenyl]-3-yl)sulfonyl)thiazol-2-yl)methanamine Hydrochloride] | – | 9.97 | 10.2 | – | – | – | – | – | –
CCc1cc(-c2cnn(C)c2)cc(S(=O)(=O)c2cnc(CN)s2)c1 [Compound 21b, (5-((3-Ethyl-5-(1-methyl-1H-pyrazol-4-yl)phenyl)sulfonyl)thiazol-2-yl)methanamine Hydrochloride] | (i) 76% | – | – | – | ≤ 32 | – | (ii) 82 ^b % | no deaths due to tumor volume reaching ethical size limits | –
CCc1cc(-c2cnn(C)c2)cc(S(=O)(=O)c2csc(CN)n2)c1 [Compound 22d, (4-((3-Ethyl-5-(1-methyl-1H-pyrazol-4-yl)phenyl)sulfonyl)thiazol-2-yl)methanamine Hydrochloride] | – | 20.98 | – | > 18 | ≤ 32 | 60 | – | – | 68
